Test results from PubChem BioAssay AID1347417 (National Center for Advancing Translational Sciences (NCATS), 2020).
Hit rate of the full screen: of about 120,000 compounds, about 5,300 (4.4%) were called active. The inconclusive results got no clear call from the source; some entries with a clear call stand among them for comparison. The call rests on the fitted dose curve; in most records, active means well fitted inhibition curve with a large enough effect; inconclusive means small, poorly fitted or top-dose-only effect; inactive means no such curve, though single readings can be large or run the other way. A potency beside an inconclusive call is a rough fit, not a confirmed value.

Test: qHTS Primary assay for Inhibitors of Plasmodium falciparum Dd2 growth in vitro; further: nearly all actives have a fitted effect of over 65% in size
Conditions: P. falciparum Dd2 growth, SYBR Green, 72 h; series mostly up to 28.9 µM
Method in brief: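 Readout: SYBR Green fluorescence, 485 nm excitation, 535 nm emission, after ~16 h lysis at 37C. Before that, Dd2-infected red cells (2.5% hematocrit) grew 72 h with compound, 29 uM top final concentration.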
Potency means the concentration at half of the fitted maximal effect; tags describe the fitted curve by direction and shape.

| SMILES | Potency |
| --- | --- |
| COc1ccccc1CN(C)Cc1ccc(F)cc1 | inconclusive: 5.01 µM [inhibitor, full curve, poor fit] |
| CCCCS(=O)(=O)N1C[C@@H](c2ccc3c(c2)OCO3)[C@@H]2[C@H]1C1CCN2CC1 | inconclusive: 7.08 µM [inhibitor, partial curve, poor fit] |
| CCOc1cc(C)c(C(C)C)cc1S(=O)(=O)n1ccnc1CC | inconclusive: 0.0251 µM [inhibitor, full curve, poor fit] |
| CC(=O)c1ccc(NC(=O)NC[C@@H]2C=C(C)[C@H](CC(=O)N(C)Cc3cccnc3)C[C@H]2C(C)C)cc1 | inconclusive: 20 µM [inhibitor, single point] |
| COc1ccc(CN2CCc3nc(C(=O)Nc4ccccc4)oc3CC2)cc1 | inconclusive: 4.47 µM [inhibitor, single point] |
| O=C1NCc2ccccc2CC12CCCN2Cc1cccc(O)c1 (configuration not stated) | inconclusive: 17.8 µM [inhibitor, single point] |
| COc1cccc(CCC(=O)N2CCCN(c3cc(-c4ccc(Cl)cc4)[nH]n3)CC2)c1 | inconclusive: 2.24 µM [inhibitor, full curve] |
| COc1ccccc1CNC(=O)C1CCN(Cc2cc3ccccc3n2Cc2cccc(C)c2)CC1 | inconclusive: 10 µM [inhibitor, single point] |
| CCn1nccc1C(=O)N1CCCn2ccnc2C1c1cnn(C)c1 (configuration not stated) | inactive |
| CC(C)(C)n1nnnc1C1CC2(CCOCC2)C(=O)N1CCc1c[nH]c2ccccc12 (configuration not stated) | inactive |
| CC(C)c1noc(-c2cccn3c(CNC(=O)C(C)c4ccccc4)nnc23)n1 (configuration not stated) | inconclusive: 17.8 µM [inhibitor, single point] |
| COCCN1C(=O)[C@@H]2C[C@@H](CN2Cc2ccccc2F)Oc2ccccc21 | inconclusive: 10 µM [inhibitor, partial curve] |
| CN(CCc1ccccn1)[C@H]1[C@@H]2OC[C@@H](O2)[C@@H](NCc2ccccn2)[C@@H]1O | inconclusive: 31.6 µM [inhibitor, single point] |
| O=C(NC[C@H]1OC[C@@H](NC2CCCC2)[C@@H]1O)C1CCCC1 | inactive |
| COc1ccc(CNC(=O)C[C@@H]2O[C@H](CNC(C)=O)[C@@H](O)[C@H]2O)cc1 | inactive |
| CC(C)N1C(=O)C2(CCCCC2)C1C(=O)N1CCN(C)CC1 (configuration not stated) | inactive |
| O=C(NCCc1ccccc1)c1ccc2nccn2c1 | inactive |
| O=C1NC2(CCN(Cc3ccsc3)C2)OCc2ccccc21 (configuration not stated) | inconclusive: 2.51 µM [inhibitor, single point] |
| O=C(Cn1nc2c(cc1=O)CCCCC2)Nc1ccc(C(F)(F)F)nc1 | inactive |
| O=C(Nc1ccc(Cl)c(Cl)c1)c1cc(S(=O)(=O)N2CCN(c3cccc(Cl)c3)CC2)ccc1F | inconclusive: 17.8 µM [inhibitor, single point] |
| COc1ccc(-c2cn(-c3ccc(C)cc3)c(S(=O)(=O)CC(=O)Nc3ccccc3)n2)cc1 | inconclusive: 14.1 µM [inhibitor, single point] |

| SMILES | Potency |
| --- | --- |
| COc1ccc(C(=O)N2CCN(c3nc4ncccc4o3)CC2)cc1 | inconclusive: 2.82 µM [inhibitor, partial curve] |
| COCCNC(=O)c1ccc2c(c1)N(Cc1ccc(C(F)(F)F)cc1)C(=O)c1ccccc1S2 | inconclusive: 8.91 µM [inhibitor, single point] |
| O=C(NCCc1ccccn1)[C@@H]1C[C@@H](c2ccc(F)cc2)N(CCOc2ccccc2)C1 | inconclusive: 2.24 µM [inhibitor, partial curve, poor fit] |
| COc1ccccc1CC(=O)N1CCCc2ncc(C(=O)Nc3cccc(C(F)(F)F)c3)cc21 | active: 4.47 µM |
| Cc1nc(-c2ccc(OC3CCN(C(=O)CCc4nc5ccccc5[nH]4)C3)cc2)no1 (configuration not stated) | inconclusive: 1.58 µM [inhibitor, partial curve, poor fit] |
| CC(NC(=O)c1ccc(CSc2nc3ccncc3n2Cc2ccc(F)cc2)cc1)c1ccccc1 (configuration not stated) | active: 8.91 µM |
| CCc1cccc(NC(=O)C2CCN(C(=O)c3ncn4c3COC(c3ccc(OC)cc3)C4)CC2)c1 (configuration not stated) | inconclusive: 11.2 µM [inhibitor, single point] |
| O=S(=O)(c1ccccc1)c1nc(-c2cccs2)oc1N1CCCCC1 | inactive |
| Cc1cccc(OCCCSc2nc(-c3ccc(C(C)(C)C)cc3)nc3cc(=O)[nH]n23)c1C | active: 10 µM |
| CC(C)CNC(=O)c1nc(-c2ccc(Cl)cc2)c2cnccn12 | inconclusive: 0.708 µM [inhibitor, full curve, poor fit] |
| Cc1ccc(-c2nc(C)c(C(=O)Nc3ccc4c(c3)C(=O)N3CCC[C@H]3C(=O)N4)s2)cc1 | inactive |
| COc1cc(-c2nc3ccc(Cl)cn3c2Nc2ccc3c(c2)OCO3)ccc1O | inconclusive: 14.1 µM [inhibitor, single point] |
| CCN1c2cc(C(=O)Nc3ccc(C)c(F)c3)ccc2C(=O)N2CCCCCC21 (configuration not stated) | inconclusive: 3.98 µM [inhibitor, single point] |
| O=C(NC[C@H]1Cn2c(-c3cccc(Cl)c3)cnc2CO1)Nc1ccccc1 | inconclusive: 12.6 µM [inhibitor, partial curve, poor fit] |
| CNC(=O)[C@@H]1CN(C(=O)CCc2ccccc2OC)C[C@H]1CO | inactive |
| CC1=C[C@@H](CNC(=O)CCCC(=O)O)[C@H](C(C)C)C[C@H]1Cc1nc2c(C)cccc2[nH]1 | inconclusive: 12.6 µM [inhibitor, single point] |
| COc1ccc(N2CCN(C(=O)c3cn(C)c4ccc(S(=O)(=O)N(C)C5CCCCC5)cc4c3=O)CC2)cc1 | active: 11.2 µM |
| NCc1ccccc1-c1cccc(Cl)c1 | active: 8.91 µM |
| O=C(NCc1ccncc1)C1Cn2cccc2C(=O)N1Cc1ccccc1 (configuration not stated) | inactive |
| O=C(c1nc(-c2ccc(F)cc2)c2ccccn12)N1CCN(c2ncccn2)CC1 | inconclusive: 3.98 µM [inhibitor, full curve] |
| COCCN1CCOc2nc(-c3cccc(C)c3)ncc2C1=O | inconclusive: 0.355 µM [inhibitor, full curve, poor fit] |
